# Data reported in paper PMC6919601, “Identification of Plasmodium dipeptidyl aminopeptidase allosteric inhibitors by high throughput screening” (PLoS ONE, 2019).
# The whole screen tested about 110,000 compounds, of which about 230 (0.21%) showed an effect of 50% or more. Some of the results follow.
# Biological target: DPAP1 (Plasmodium falciparum, UniProt Q8IIJ9)
# Experiment: primary screen, percent inhibition; read by cleavage of a fluorogenic dipeptide substrate; higher = more effect of the substance
# Design: species or system P. falciparum D10 trophozoite lysates; single well
# 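Also: 30 min substrate incubation versus DMSO and 10 µM JCP410 controls.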
# Sequence of DPAP1 (Q8IIJ9 whole entry, looked up): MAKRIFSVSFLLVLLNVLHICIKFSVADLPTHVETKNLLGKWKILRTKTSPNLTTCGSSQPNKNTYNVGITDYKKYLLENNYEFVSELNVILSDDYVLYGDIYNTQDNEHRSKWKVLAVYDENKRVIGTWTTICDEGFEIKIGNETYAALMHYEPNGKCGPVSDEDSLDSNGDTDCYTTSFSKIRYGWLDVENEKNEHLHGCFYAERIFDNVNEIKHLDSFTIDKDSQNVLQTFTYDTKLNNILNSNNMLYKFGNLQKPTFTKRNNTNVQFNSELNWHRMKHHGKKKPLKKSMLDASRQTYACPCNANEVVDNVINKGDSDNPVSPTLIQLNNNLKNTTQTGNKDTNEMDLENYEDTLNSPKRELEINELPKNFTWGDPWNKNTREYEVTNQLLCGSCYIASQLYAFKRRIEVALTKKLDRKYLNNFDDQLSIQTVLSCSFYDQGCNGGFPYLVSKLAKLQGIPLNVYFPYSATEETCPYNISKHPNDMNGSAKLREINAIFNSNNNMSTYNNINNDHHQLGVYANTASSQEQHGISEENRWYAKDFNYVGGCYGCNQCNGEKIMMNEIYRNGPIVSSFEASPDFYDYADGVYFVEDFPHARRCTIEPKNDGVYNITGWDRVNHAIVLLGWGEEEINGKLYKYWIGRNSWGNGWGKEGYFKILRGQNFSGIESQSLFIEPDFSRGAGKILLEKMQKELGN
row,Structure (SMILES),% Inhibition @ 10 uM
1,Cc1nn(-c2ccccc2)c2sc(-c3nnc(S)o3)cc12,64.9%
2,Cc1ccc(SCCC(=O)N2CCN(c3ccccc3F)CC2)cc1,3.29%
3,CSCCC(/N=C/C1=C(O)CC(C)(C)CC1=O)C(=O)O (stereo not drawn),1.52%
4,O=C(Nc1ccc(S(=O)(=O)N2CCc3ccccc32)cc1)c1ccco1,4.67%
5,Cc1c(C(=O)OCC(C)(C)CN(C)C)oc2ccccc12,0.685%
6,O=C(Nc1cccc(NC(=O)c2ccncc2)n1)c1ccncc1,1.64%
7,COc1cc(CN2CCC(O)CC2)cc(OC)c1,-1.22%
8,Cc1ccc(CN2CCN(c3ccc([N+](=O)[O-])cc3)CC2)o1,-2.95%
9,COc1ccccc1/C=C/C1=NC(=C\c2cc(Br)cs2)/C(=O)O1,0.997%
10,CC1CCc2c(sc(NC(=O)C3c4ccccc4Oc4ccccc43)c2C(N)=O)C1 (stereo not drawn),0.658%
11,CCOC(=O)N1CCC(NCCc2c[nH]c3ccccc23)CC1,-3.6%
12,COc1ccc(NC(=O)Cc2ccc(F)cc2)cc1,2.84%
13,COc1ccc(CC(=O)Nc2nnc(C3CCCCC3)s2)cc1OC,3.54%
14,CCc1ccc(CNC(=O)C2CCN(S(=O)(=O)CC)CC2)cc1,-4.83%
15,CCC(CC)C(=O)Nc1ccccc1OC,-2.76%
16,Cc1nn(CC(=O)NCCCN2CCOCC2)c(=O)c2c1sc1ccccc12,-3.43%
17,C1CCC(C2NCCN3CCCC23)CC1 (stereo not drawn),-3.6%
18,CC12CCC(C(=O)N(c3nc4c(s3)CCCC4)C1=O)C2(C)C (stereo not drawn),-3.5%
19,CC(C)c1ccc(S(=O)(=O)C2C(=O)N(C)C34CCCCC3C2c2ccccc2O4)cc1 (stereo not drawn),0.953%
20,CCC(=O)c1ccc(OCC(=O)c2ccc(Br)cc2)cc1,0.323%
21,CC(C)(C)c1ccc(S(=O)(=O)Nc2ccc(C(=O)NCc3ccco3)cc2)cc1,0.161%
22,Cn1c(=O)[nH]c(=O)c2c1nc(CN1CCN(Cc3ccccc3)CC1)n2CCc1ccccc1,30.2%

row,Structure (SMILES),% Inhibition @ 10 uM
1,CCn1c2c(c(=O)[nH]c1=O)C(c1cccc3ccccc13)C1=C(O)c3ccccc3C1=N2 (stereo not drawn),4.08%
2,COc1cc(/C=C2\Sc3ccccc3C2=O)ccc1OCC(=O)O,-1.26%
3,Cc1cccc(-c2cc(C(=O)NCCCN3CCOCC3)c3ccccc3n2)c1,-10.6%
4,O=C(NCCc1ccc(Cl)cc1)c1coc(=O)c2ccccc12,-5.17%
5,C(=C\c1ccccc1)/CN1CCN(Cc2ccc(OCc3ccccc3)cc2)CC1,-3.42%
6,C=CCSc1nnc(NC(=O)Cc2coc3ccc(C)cc23)s1,1%
7,COCCCNC(=O)/C(C#N)=C/c1c(Oc2cccc(C)c2)nc2c(C)cccn2c1=O,3.63%
8,CC(=O)c1ccc(C(=O)N(CCN(C)C)c2nc3cc(C)cc(C)c3s2)cc1,5.85%
9,Cc1sc(NC(=O)C2CCCO2)nc1-c1ccccc1 (stereo not drawn),-1.59%
10,COc1ccc(C)cc1N(CC(=O)Nc1ccc2c(c1)OCO2)S(=O)(=O)c1ccc(C)cc1,3.35%
11,COc1ccccc1OCC(=O)NC1CCS(=O)(=O)C1 (stereo not drawn),-3.75%
12,O=C(CCn1nc(-c2ccccc2)ccc1=O)NCCCN1CCC(Cc2ccccc2)CC1,-5.43%
13,COc1ccc(CN(C)CCN(C)C)c(OC)c1,1.42%
14,COc1ccccc1/C=C1\SC(=O)N(CCC(=O)Nc2ccc(S(N)(=O)=O)cc2)C1=O,-3.84%
15,COc1ccc(CCn2c(C)c3c(C)nn4cc(-c5ccc(C)o5)cc4c3c2C)cc1OC,5.35%
16,CCCCN(C)C(=O)Cn1nc(Cc2cccnc2)c2ccccc2c1=O,-6.52%
17,CSc1ccc(CCNC(=O)Cn2ccc3cc(S(=O)(=O)N4CCCCC4)ccc32)cc1,3.47%
18,CC1CN(CC(=O)Nc2sc3c(c2C#N)CCCC3)CC(C)O1 (stereo not drawn),-4.49%
19,O=C(NCc1cccs1)C(Cc1ccccc1)n1cccc1 (stereo not drawn),-2.42%
20,Cc1c(CC(=O)NCc2ccccc2)c(=O)oc2cc3occ(C(C)(C)C)c3cc12,4.13%
21,CCSC1=N/C(=C\c2ccc(C(=O)O)cc2)C(=O)S1,-2.07%
22,O=C(O)C12CC3CC(C1)CC(n1cncn1)(C3)C2,-4.49%

row,Structure (SMILES),% Inhibition @ 10 uM
1,CCN(CC)S(=O)(=O)c1cc(OC)c(Cl)cc1OC,0.776%
2,C/C(=C\c1ccccc1)CN(CCN(C)C)Cc1ccccc1,-5.11%
3,CC(=O)Nc1ccc(S(=O)(=O)NC2CCCC2)cc1,-0.413%
4,CCCOc1ccc(NC(=O)OC2CCN(C)CC2)cc1,0.24%
5,C=CCn1c(S)nnc1CCn1c2ccccc2c2ccccc21,4.35%
6,CCNC(=O)C1COc2ccccc2O1 (stereo not drawn),5.01%
7,N#C/C(=C\c1cccs1)c1nc(-c2cccs2)cs1,-0.239%
8,CCN1C(=O)N/C(=C/c2ccc(O)c(OC)c2)C1=O,-5.45%
9,COc1cccc(OCC(O)CN2CCCCCC2)c1 (stereo not drawn),2.76%
10,CC(=O)c1c(C(C)=O)c(C)n(-c2nc(-c3ccc(Br)cc3)c(C)s2)c1C,0.778%
11,C(#Cc1ccccc1)CNCCc1c[nH]c2ccccc12,-1.52%
12,Cc1ccccc1CN1CCCN(C)CC1,-0.0404%
13,Cc1[nH]c2ccccc2c1C(=O)/C=C/c1cccnc1,-0.969%
14,Cn1c(=O)c2sccc2n2c(CCCC(=O)N3CCN(C4CCCCC4)CC3)nnc12,-5.39%
15,COc1ccc(-c2csc(/C(C#N)=C/c3ccc(O)cc3)n2)cc1,-4.58%
16,O=C(Cn1ncc2ccccc21)NCc1cccs1,3.29%
17,CC(C)C[C@H](NC(=O)c1ccc(-c2cc(Cl)sc2Cl)cc1)C(=O)NCC#N,1.35%
18,COCCNC(=O)CCCCCn1c(=O)[nH]c2ccsc2c1=O,-7.33%
19,Cc1nc(O)c2nnn(Cc3ccccc3)c2n1,-6.42%
20,Oc1cc(-c2ccccn2)[nH]n1,0.503%
21,CCc1ccccc1N(CC(=O)NC(C)(C)C)S(=O)(=O)c1ccc(C)cc1,9.34%
22,CC(=O)c1cccc(NC(=O)Nc2ccc(Cl)c(Cl)c2)c1,4.54%
